Results reported in paper PMC13263796.
Numbering of substitutions follows the chain as printed. No constants are given. Whether binding was seen depends on the method and setting. Some entries that bind do so weakly or less than the wild type. Where a sequence is shown, tags or fusion partners need not be part of it. Blank lines part the entries; values can stand above or below the binder they belong to.

Target: T1, BD-Atg9 (S. cerevisiae) (UniProt Q12142)
T1 sequence: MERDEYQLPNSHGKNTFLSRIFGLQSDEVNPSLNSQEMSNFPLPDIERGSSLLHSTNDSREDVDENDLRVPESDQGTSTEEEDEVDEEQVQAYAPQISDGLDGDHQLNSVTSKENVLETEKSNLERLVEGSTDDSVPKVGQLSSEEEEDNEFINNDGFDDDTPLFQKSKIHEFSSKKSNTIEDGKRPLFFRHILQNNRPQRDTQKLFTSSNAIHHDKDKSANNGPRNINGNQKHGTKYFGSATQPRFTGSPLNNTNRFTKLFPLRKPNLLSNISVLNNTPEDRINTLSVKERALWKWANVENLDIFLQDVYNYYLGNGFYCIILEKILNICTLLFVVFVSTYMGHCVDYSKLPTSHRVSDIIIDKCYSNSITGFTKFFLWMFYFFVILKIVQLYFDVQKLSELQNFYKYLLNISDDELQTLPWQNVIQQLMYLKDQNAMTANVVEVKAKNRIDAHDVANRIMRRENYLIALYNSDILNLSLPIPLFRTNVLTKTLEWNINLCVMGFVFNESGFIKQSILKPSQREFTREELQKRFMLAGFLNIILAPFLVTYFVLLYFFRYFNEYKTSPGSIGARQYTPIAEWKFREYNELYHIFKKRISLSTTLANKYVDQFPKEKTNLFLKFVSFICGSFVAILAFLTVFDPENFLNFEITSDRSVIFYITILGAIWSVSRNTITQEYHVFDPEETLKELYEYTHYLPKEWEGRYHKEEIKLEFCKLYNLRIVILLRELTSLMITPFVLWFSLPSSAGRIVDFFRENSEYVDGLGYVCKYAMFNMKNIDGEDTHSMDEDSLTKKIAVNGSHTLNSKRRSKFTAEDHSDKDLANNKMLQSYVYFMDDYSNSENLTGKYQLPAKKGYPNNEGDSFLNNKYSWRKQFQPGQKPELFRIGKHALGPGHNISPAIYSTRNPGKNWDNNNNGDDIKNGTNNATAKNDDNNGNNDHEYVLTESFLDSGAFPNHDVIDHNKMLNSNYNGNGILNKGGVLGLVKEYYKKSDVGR
Experiment: two-hybrid; BD-ATG9 with AD-ATG11 or mutants in multiple-knockout yeast YCY149 (lacking 25 ATG genes); growth on SMD -ura -leu -his with 1.5 mM 3-amino-triazol, 4-5 days at 30°C

B2: AD-Atg11 (protein, UniProt Q12527 1-1178)
chain: MADADEYSTAPTQQEITPLQTTATIINAISGECITTNVDFFVSLDKFKQFIARKWKIPPDQLLILLPYGNKLKPSMFKELLINRSFTLNDFYVYDRRLFSLVSKPTPTNLLTSKDSNPMNSPNSNDLTETLEYLIKNSHISQYQGSDTIMIKPMPSPLEDADVDLSRLNYHSVTSLLTTNLGWLSALEIDVHYFKSLIPDIIAHIKRIFDGLTVCSQYLKLYCFDVESLYNSNVQFLNQLVDNGMTSKWEKCFNDTLSKLTALEGDSLQKFINIESLLENEKSVKILNHSINGKLNKIKREIDENASFRDIITVNIDRLRQMFTPNESKFELEDQMAESFEVLVSEMRTRSRNVLDKEEEEFNSQEFLKSMNVMLEKDKKESVKTLFTISQALYSQIGELIDLKKSLQKHAVAILGNIAFTQMEILGIKRLLLNECNKDLELYKKYEVEFAQVEDLPLIYGLYLIEKYRRLSWFQQILSFISNFNQDLELFKQNELRTRNKWVKNFGSIATVFCEDLLSSSDFKRLNEYHSHTSPPNEDEEDENENSIANYRQDLVKVSQAIDNYMTQIKETDVSEPIIDLLSKTLFETKRFHIIYSNFKNNNNNSSNGNSISPEGSIALKSDDVVKGYKTRIKKLESLLHEFQYSDIGHWPQGVLNTHLKPFRGSATSINKKKFLGASVLLEPANISEVNIDSVSQANNHQIQELESNVDDLLHQLQLLKEENNRKSMQISEMGKKISDLEVEKTAYRETLTNLNQELARLTNEEQSHRTEIFTLNASFKKQLNDIISQDNEKIEKLTGDYDDVSKSRERLQMDLDESNKKHEQEVNLLKADIERLGKQIVTSEKSYAETNSSSMEKGEKFETIPLAEDPGRENQISAYTQTLQDRIFDIISTNIFILENIGLLLTFDNNNNIQIRRVKGLKKGTAQSNILDESTQMLDAHDNSLIKSPVFQKLKDEYELIKSVANGSEKDTQQSIFLGNITQLYDNKLYEVAVIRRFKDIETLAKKLTKENKIKRTLLERFQREKVTLRNFQIGDLALFLPTRENVNSVGSMSSSTSSLSSSFSSVDLSTPPPLDAMSIQSSPSVIHSNVINQASISGRDKNKLMRPWAAFTAFEESTRYFLKDEKGLTKGKEWFVGRIVTLEHFVADSPSNNPFRLPKGSVWFQVTAVVVSYQGV
binding: binds

B3: AD-Atg11 DLL (protein, UniProt Q12527 1-1178)
chain: B2 chain with D516A, L517A, L526A
binding: binds

B4: AD-Atg11 QNLNK (protein, UniProt Q12527 1-1178)
chain: B2 chain with Q493A, N494A, L496A, N500A, K501A
binding: binds

B5: AD-Atg11 EDLLS (protein, UniProt Q12527 1-1178)
chain: B2 chain with E515A, D516A, L517A, L518A, S519A
binding: binds

B6: AD-Atg11 DL (protein, UniProt Q12527 1-1178)
chain: B2 chain with D516A, L517A
binding: binds

B10: AD-Atg11 QQ (protein, UniProt Q12527 1-1178)
chain: B2 chain with Q475A, Q476A
binding: binds

The next lines start with the values.

binding: binds
B1: AD-Atg11_IA3 (protein, UniProt Q12527 1-575; P01094 2-53; Q12527 628-1178)
chain: MADADEYSTAPTQQEITPLQTTATIINAISGECITTNVDFFVSLDKFKQFIARKWKIPPDQLLILLPYGNKLKPSMFKELLINRSFTLNDFYVYDRRLFSLVSKPTPTNLLTSKDSNPMNSPNSNDLTETLEYLIKNSHISQYQGSDTIMIKPMPSPLEDADVDLSRLNYHSVTSLLTTNLGWLSALEIDVHYFKSLIPDIIAHIKRIFDGLTVCSQYLKLYCFDVESLYNSNVQFLNQLVDNGMTSKWEKCFNDTLSKLTALEGDSLQKFINIESLLENEKSVKILNHSINGKLNKIKREIDENASFRDIITVNIDRLRQMFTPNESKFELEDQMAESFEVLVSEMRTRSRNVLDKEEEEFNSQEFLKSMNVMLEKDKKESVKTLFTISQALYSQIGELIDLKKSLQKHAVAILGNIAFTQMEILGIKRLLLNECNKDLELYKKYEVEFAQVEDLPLIYGLYLIEKYRRLSWFQQILSFISNFNQDLELFKQNELRTRNKWVKNFGSIATVFCEDLLSSSDFKRLNEYHSHTSPPNEDEEDENENSIANYRQDLVKVSQAIDNYMTQIKETDVSNTDQQKVSEIFQSSKEKLQGDAKVVSDAFKKMASQDKDGKTTDADESEKHNYGYKTRIKKLESLLHEFQYSDIGHWPQGVLNTHLKPFRGSATSINKKKFLGASVLLEPANISEVNIDSVSQANNHQIQELESNVDDLLHQLQLLKEENNRKSMQISEMGKKISDLEVEKTAYRETLTNLNQELARLTNEEQSHRTEIFTLNASFKKQLNDIISQDNEKIEKLTGDYDDVSKSRERLQMDLDESNKKHEQEVNLLKADIERLGKQIVTSEKSYAETNSSSMEKGEKFETIPLAEDPGRENQISAYTQTLQDRIFDIISTNIFILENIGLLLTFDNNNNIQIRRVKGLKKGTAQSNILDESTQMLDAHDNSLIKSPVFQKLKDEYELIKSVANGSEKDTQQSIFLGNITQLYDNKLYEVAVIRRFKDIETLAKKLTKENKIKRTLLERFQREKVTLRNFQIGDLALFLPTRENVNSVGSMSSSTSSLSSSFSSVDLSTPPPLDAMSIQSSPSVIHSNVINQASISGRDKNKLMRPWAAFTAFEESTRYFLKDEKGLTKGKEWFVGRIVTLEHFVADSPSNNPFRLPKGSVWFQVTAVVVSYQGV

binding: binds
B7: AD-Atg11 TV (protein, UniProt Q12527 1-1178)
chain: B2 chain with T511A, V512A

binding: binds
B8: AD-Atg11 YDL (protein, UniProt Q12527 1-1178)
chain: B2 chain with Y468A, D516A, L517A

binding: binds weakly
B9: AD-Atg11 YDLL (protein, UniProt Q12527 1-1178)
chain: B2 chain with Y468A, D516A, L517A, L526A
